Assay results as given in patent US20190241639A1 (ZHEJIANG DOER BIOLOGICS, published 2019).

B1: GLP-2 mutant fusion protein SEQ ID NO:9 (Fc fusion)
chain: HGDGSFSDEMNTILDNLAARDFINWLIQTKITD[human IgG4 Fc with S228P N297A (EU numbers) omitted]
B2: GLP-2 mutant fusion protein SEQ ID NO:18 (Fc fusion)
chain: HGDGSFSDEMNTILDNLAARDFINWLIQTKITDGGGGSGGGGSGPEGAPGPS[human IgG4 Fc with S228P N297A (EU numbers) omitted]
B3: GLP-2 mutant fusion protein SEQ ID NO:19 (Fc fusion)
chain: HGDGSFSDEMNTILDNLAARDFINWLIQTKITDGGGGSGGGGSGPSGAPGPPGPEGPA[human IgG4 Fc with S228P N297A (EU numbers) omitted]
B4: GLP-2 mutant fusion protein SEQ ID NO:20 (Fc fusion)
chain: HGDGSFSDEMNTILDNLAARDFINWLIQTKITDGGGGSGGGGSGPSGAPGPPGPSGAPGPPGPSGAPGPP[human IgG4 Fc with S228P N297A (EU numbers) omitted]
B5: GLP-2 mutant fusion protein SEQ ID NO:24 (Fc fusion)
chain: HGDGSFSDEMNTILDNLAARDFINWLIGGGGS[human IgG4 Fc with S228P N297A (EU numbers) omitted]
B6: GLP-2 mutant fusion protein SEQ ID NO:25 (Fc fusion)
chain: HGDGSFSDEMNTILDNLAARDFINWLIQTKGGGGSGGGGS[human IgG4 Fc with S228P N297A (EU numbers) omitted]
B7: GLP-2 mutant fusion protein SEQ ID NO:10 (Fc fusion)
chain: HGDGSFSDEMNTILDNLAARDFINWLIQTKITDGGGGS[human IgG4 Fc with S228P N297A (EU numbers) omitted]
B8: GLP-2 mutant fusion protein SEQ ID NO:11 (Fc fusion)
chain: HGDGSFSDEMNTILDNLAARDFINWLIQTKITDGGGGSGGGGSGGGGS[human IgG4 Fc with S228P N297A (EU numbers) omitted]
B9: GLP-2 mutant fusion protein SEQ ID NO:12 (Fc fusion)
chain: HGDGSFSDEMNTILDNLAARDFINWLIQTKITDGGGGSGPA[human IgG4 Fc with S228P N297A (EU numbers) omitted]
B10: GLP-2 mutant fusion protein SEQ ID NO:13 (Fc fusion)
chain: HGDGSFSDEMNTILDNLAARDFINWLIQTKITDGGGGSGGGGSGPQ[human IgG1 Fc with changes omitted]
B11: GLP-2 mutant fusion protein SEQ ID NO:14 (Fc fusion)
chain: HGDGSFSDEMNTILDNLAARDFINWLIQTKITDGGGGSGGGGSGGGGSGPA[human IgG4 Fc with S228P N297A (EU numbers) omitted]
B12: GLP-2 mutant fusion protein SEQ ID NO:15 (Fc fusion)
chain: HGDGSFSDEMNTILDNLAARDFINWLIQTKITDGGGGSGGGGSGGGGSGGGGSGGGGSGPD[human IgG4 Fc with S228P N297A (EU numbers) omitted]
B13: GLP-2 mutant fusion protein SEQ ID NO:16 (Fc fusion)
chain: HGDGSFSDEMNTILDNLAARDFINWLIQTKITDGGGGSGGGGSGPPGPA[human IgG4 Fc with S228P N297A (EU numbers) omitted]
B14: GLP-2 mutant fusion protein SEQ ID NO:17 (Fc fusion)
chain: HGDGSFSDEMNTILDNLAARDFINWLIQTKITDGGGGSGGGGSGPPGPA[human IgG1 Fc with changes omitted]

Target: GLP-2 receptor
Assay: cell-based or functional assay

Binder | EC50 (nM), luciferase reporter gene assay in GLP-2R/Luc-CHO cells [nM]
B1 | 85.8
B2 | 10.7
B3 | 11
B4 | 13.1
B5 | 95.8
B6 | 83.4
B7 | 80.2
B8 | 92.6
B9 | 25.8
B10 | 19.6
B11 | 21.9
B12 | 24.1
B13 | 7.8
B14 | 6.4
